# The supplement of paper PMC3334620
# The full ranking holds about 33,000 sequences; the median of “E-score (-0.5 to 0.5)” is about -0.043, and the highest 2% start at about 0.37. The list shows a part of the results.
# Target: T1, Upc2 (UniProt Q12151)
# T1 sequence: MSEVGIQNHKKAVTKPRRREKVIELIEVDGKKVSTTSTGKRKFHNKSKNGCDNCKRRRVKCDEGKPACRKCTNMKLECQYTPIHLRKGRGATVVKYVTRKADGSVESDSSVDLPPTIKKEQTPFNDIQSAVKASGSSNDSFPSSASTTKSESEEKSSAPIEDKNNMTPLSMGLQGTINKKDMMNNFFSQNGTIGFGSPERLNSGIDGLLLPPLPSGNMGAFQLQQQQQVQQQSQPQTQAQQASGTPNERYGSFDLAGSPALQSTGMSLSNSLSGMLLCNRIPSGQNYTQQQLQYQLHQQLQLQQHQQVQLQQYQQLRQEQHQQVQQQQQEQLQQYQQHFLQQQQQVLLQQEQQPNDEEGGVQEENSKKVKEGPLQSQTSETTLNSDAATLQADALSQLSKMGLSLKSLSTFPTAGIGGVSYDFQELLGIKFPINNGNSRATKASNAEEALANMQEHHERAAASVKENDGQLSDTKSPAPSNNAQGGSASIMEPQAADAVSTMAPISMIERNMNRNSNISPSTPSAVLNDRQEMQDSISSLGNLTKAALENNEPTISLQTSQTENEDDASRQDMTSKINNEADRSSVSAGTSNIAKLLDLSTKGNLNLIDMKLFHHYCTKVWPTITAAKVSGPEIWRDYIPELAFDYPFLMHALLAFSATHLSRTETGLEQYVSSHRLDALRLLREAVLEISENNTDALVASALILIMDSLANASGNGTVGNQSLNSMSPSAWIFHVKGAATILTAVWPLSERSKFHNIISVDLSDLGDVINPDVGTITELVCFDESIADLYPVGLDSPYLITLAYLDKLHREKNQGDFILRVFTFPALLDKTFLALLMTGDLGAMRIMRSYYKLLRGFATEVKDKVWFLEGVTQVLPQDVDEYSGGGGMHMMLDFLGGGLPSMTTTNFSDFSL
# Experiment: PBM E-score (8-mer binding enrichment) (E-score (-0.5 to 0.5)); higher = stronger / more preferred TF binding; most listed sequences are background and not binding sites
# Details: protein concentration: 200 nM; construct: GST-full length
# In short: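 Universal all-10-mer Agilent arrays, fresh or stripped once, were converted to double-stranded form by primer extension. GST-tagged yeast transcription factors from PURExpress in vitro transcription/translation, full-length or DNA-binding domain only, were applied at about 100-200 nM and detected with fluorescent anti-GST. After masliner normalisation, the Universal PBM Analysis Suite scored each ungapped eight-base word together with its reverse complement by E-score.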
row,Sequence,PBM E-score
1,AGAGTCAC,-0.201
2,ACTAGTAA,-0.109
3,CAGGTAGG,-0.18
4,CGAAAACC,0.153
5,AATATTAT,-0.0085
6,CGTTAACC,0.348
7,GACTGAAA,0.031
8,AGCCATCA,0.00417
9,GAGAAAGA,-0.0168
10,TCTAGGAA,-0.194
11,GGAAGGAA,-0.049
12,AGTCCCTC,-0.125
13,ACTCCGTC,-0.0313
14,GCCCGAAC,0.00648
15,AGCTAGCC,-0.128
16,CCTCAACC,-0.0925
17,CTCTCGGC,-0.151
18,AAGTGGGA,-0.0458
19,GGTAGTAC,0.0243
20,GACATCAA,-0.0575
21,CTCCCGCA,-0.0644
22,ACCCACCC,-0.115
23,AGAAAGCA,5e-05
24,TGAAAACA,0.00644
25,AACACAAG,-0.0766

row,Sequence,PBM E-score
1,ACTTGTGA,-0.167
2,AAGGTATG,-0.194
3,ATTCGAGA,0.0266
4,CAGGCGGC,-0.0153
5,CATATCGA,-0.148
6,GGTTGGGA,-0.0786
7,CTCAACAC,-0.0233
8,CGGCTTGC,-0.0517
9,AACACAGC,0.133
10,ATCTATAC,0.287
11,CCACTCCC,0.0437
12,ACCGTTGA,0.114
13,CTGACCCC,-0.194
14,ACACTTAT,0.0498
15,ACCGTACT,0.214
16,AATCCTCT,-0.28
17,CACTTCAG,-0.242
18,AATACGAT,0.395
19,CCGATGCA,0.00648
20,CCGGATCA,-0.159
21,GTTGGCGA,0.0336
22,CAGTCTCG,0.0508
23,CTCTACTA,-0.0789
24,ATACAGGG,0.0495
25,ATACGCGA,0.349

row,Sequence,PBM E-score
1,CCAGCTAG,-0.0471
2,AGAAGAAG,-0.0336
3,CTCAGGCA,-0.178
4,CCTGTGCC,-0.2
5,GATAGCGA,0.00835
6,ATACCGCA,0.0605
7,CTGGTCCA,-0.227
8,GCTGACAA,-0.233
9,AAAATCCC,-0.114
10,CTTGCAAC,-0.0347
11,ATACAGAG,0.0394
12,GCCGCAAC,-0.0602
13,AGTACGTG,0.0272
14,GGTGCCCA,-0.242
15,ATCAACGC,0.0345
16,CGCGGTCA,-0.248
17,ACTTACAG,0.00814
18,GAACCTAC,-0.0878
19,ACATCGGG,-0.236
20,ACTTAGTA,0.053
21,AAGCCTGA,-0.209
22,GTACTAGA,0.0925
23,AGGGTATC,-0.0702
24,AACACGTC,-0.112
25,AACAACCT,-0.0984

row,Sequence,PBM E-score
1,CCGCCACA,-0.21
2,CTTTTTCC,-0.0942
3,AGATATAT,-0.0698
4,CGCCAACC,-0.0871
5,GGTAGAAA,-0.117
6,GCATCTCC,-0.306
7,ACACTCTC,-0.0609
8,AGCGAAAC,0.26
9,GAGTTTCA,-0.0194
10,CCACGCGC,-0.19
11,GCGTGTAC,0.267
12,CCGTTGTA,0.0962
13,GATTTCGC,0.248
14,AGTGACCC,-0.161
15,ATTGATCA,-0.156
16,AATATCGC,-0.071
17,CGCGATTA,-0.0112
18,CCCAAACA,-0.0267
19,GCAGCTAC,0.0136
20,AAGATTTA,0.0578
21,CGCCTAAA,0.151
22,AGGTCAGC,0.136
23,CCCATGCG,-0.0719
24,TATATCAA,-0.04
25,CACGCAGC,-0.111

row,Sequence,PBM E-score
1,ATAGATCG,0.153
2,AATACTTG,-0.194
3,AGTACGTC,0.0167
4,CAAGTTAG,-0.217
5,CTCTAAAA,-0.165
6,GCCGTCGA,-0.133
7,TCACCCAA,-0.0588
8,CAACCACC,-0.183
9,GGCTCCCA,-0.335
10,ATTGCCGC,-0.13
11,ATGGAGGG,-0.334
12,AAGATGGG,-0.219
13,CGTTCTAA,0.222
14,AAAATATC,0.012
15,AGAATAAC,-0.0145
16,CGGTACAA,0.222
17,AGTCCATG,-0.287
18,ACCTGAAC,0.0902
19,GCTGATCC,-0.166
20,CGGTAGAG,-0.109
21,CGGCCCGC,-0.146
22,AGGCTGGC,-0.278
23,AGAAGCCT,-0.148
24,GAGGTCGA,-0.0241
25,GTGGATAA,-0.151

row,Sequence,PBM E-score
1,AAACAACG,0.0699
2,AGGCCTTG,-0.0981
3,AGCACTTG,-0.0478
4,GACTGGTA,0.0928
5,AAACGCAG,0.313
6,AAGTTCAG,-0.0711
7,CGCTGACC,-0.0504
8,AGTTAAGA,-0.118
9,ACCTTCCC,-0.0937
10,CTAGCACC,-0.108
11,GGGGTTAC,0.103
12,CTTGGACC,-0.169
13,CGGGAATA,0.0198
14,AGCAGAAC,0.0883
15,GACCATAC,0.158
16,GGCGACCC,-0.221
17,CGTATTGC,0.225
18,ACGTTGGC,-0.139
19,AGTACTCA,-0.0817
20,GTACCGGA,0.209
21,GGGGGTTA,-0.272
22,CCGGGATA,0.0685
23,CGCCGTCC,-0.0187
24,CTATGTGC,-0.213
25,CGGGCGAC,-0.245

row,Sequence,PBM E-score
1,AGTCGTGA,-0.0656
2,CCGGTCTC,-0.193
3,AGCATGCG,0.0391
4,ACTAGAGA,-0.253
5,CAAGTGTA,-0.132
6,GCGCGCAA,0.0889
7,CTACTATA,0.0927
8,ACAAGGAA,0.0437
9,ACAATCCC,-0.059
10,AAGTTGGT,-0.00045
11,ATAGCCCA,-0.0686
12,CCCCGCGA,-0.0946
13,CCCTGACA,-0.327
14,CGGAGGTC,-0.046
15,TACAACGA,0.16
16,CAATTTGA,0.0656
17,GAGGACAA,-0.0723
18,AGCGTGGC,-0.184
19,CTGTCGGC,0.118
20,CCAGCTGC,-0.289
21,GATTTGAC,0.199
22,AATCTATG,0.202
23,ATAAGCTC,0.0634
24,ACACGCTG,-0.0781
25,CGAAACCC,0.0101

row,Sequence,PBM E-score
1,CATAGTTA,-0.079
2,ACTTCGCT,0.184
3,GAGGGGCC,-0.186
4,CTCCGCCA,-0.308
5,CGATCCCG,0.0208
6,TATGGTGA,0.00983
7,GGGACCAA,-0.0906
8,GCTCAGCC,-0.221
9,CAAACTAA,0.136
10,AAGGATTC,-0.29
11,CCTTACAA,-0.227
12,AGTAGTAG,-0.0255
13,AATATACT,-0.0413
14,ACTTGCCC,-0.292
15,AAATTACG,0.235
16,ACGAACTG,0.31
17,AGGGATGC,-0.282
18,ACTATGAC,-0.142
19,ATTTGTCG,0.102
20,CCTATCCA,-0.278
21,CCGGAGCC,-0.082
22,ATACGATA,0.472
23,GCCTGGCC,-0.108
24,ACCTTGAA,-0.1
25,GACTATGC,0.0224

row,Sequence,PBM E-score
1,AAGCCTTG,0.018
2,ACGTAAGT,0.137
3,ATGGATGA,-0.0106
4,ACCTAGTC,-0.0345
5,AGGGCTAT,-0.22
6,TCACATCA,-0.11
7,CCTCATGA,-0.12
8,GACCACCC,-0.161
9,TACACGAA,0.313
10,ATCCGTTG,-0.0233
11,AACGTATG,0.239
12,ACCACCCG,-0.124
13,TACGGGAA,0.327
14,AGGAGTTA,-0.0756
15,CGGGAGAA,-0.0716
16,CAAGAGGG,-0.205
17,ACTAATCA,0.0034
18,CAATTTCG,0.0133
19,CAGGATCG,0.094
